# Measurements: paper PMC12214610
# Not every entry of the source has a single result; some have several. They are shown here; other results are not. The source may hold further records. Some protein pairs were linked at several places, one record each.
# Key:
# Conditions in all cases: virion
# CHMP2B = CHMP2B (UniProt Q9UQN3)
# VTA1 = VTA1 (UniProt Q9NP79)
# CLTC = CLTC (UniProt Q00610)
# ERP44 = ERP44 (UniProt Q9BS26)
# EIF3I = EIF3I (UniProt Q13347)
# CALR = CALR (UniProt P27797)
# CCT3 = CCT3 (UniProt P49368)
# CCT4 = CCT4 (UniProt P50991)
# Chain of UniProt P50991 (P50991 whole entry): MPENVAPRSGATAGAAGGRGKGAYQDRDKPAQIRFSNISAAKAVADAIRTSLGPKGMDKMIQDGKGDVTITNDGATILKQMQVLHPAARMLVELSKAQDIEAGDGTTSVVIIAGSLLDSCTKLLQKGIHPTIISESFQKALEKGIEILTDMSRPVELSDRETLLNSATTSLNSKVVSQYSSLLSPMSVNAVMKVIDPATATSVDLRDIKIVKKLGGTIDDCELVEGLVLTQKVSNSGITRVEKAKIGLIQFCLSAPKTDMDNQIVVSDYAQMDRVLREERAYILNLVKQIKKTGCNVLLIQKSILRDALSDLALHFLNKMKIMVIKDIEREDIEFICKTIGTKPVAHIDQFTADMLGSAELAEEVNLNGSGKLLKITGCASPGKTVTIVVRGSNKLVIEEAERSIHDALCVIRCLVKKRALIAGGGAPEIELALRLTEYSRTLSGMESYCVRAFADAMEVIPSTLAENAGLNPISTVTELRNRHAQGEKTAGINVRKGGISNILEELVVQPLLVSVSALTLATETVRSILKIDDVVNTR
# CCT7 = CCT7 (UniProt Q99832)
# CCT8 = CCT8 (UniProt P50990)
# DCTN2 = DCTN2 (UniProt Q13561)
# EEF1D = EEF1D (UniProt P29692)
# Chain of UniProt P29692 (P29692 whole entry): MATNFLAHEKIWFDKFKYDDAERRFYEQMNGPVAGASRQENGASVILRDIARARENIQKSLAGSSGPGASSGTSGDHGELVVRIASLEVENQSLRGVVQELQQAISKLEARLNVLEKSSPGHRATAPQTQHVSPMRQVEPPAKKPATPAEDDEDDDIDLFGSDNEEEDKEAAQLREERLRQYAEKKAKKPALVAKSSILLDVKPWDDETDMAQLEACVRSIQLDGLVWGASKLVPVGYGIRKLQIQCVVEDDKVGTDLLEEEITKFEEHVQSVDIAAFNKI
# PDCL3 = PDCL3 (UniProt Q9H2J4)
# AP1M1 = AP1M1 (UniProt Q9BXS5)
# COPS7B = COPS7B (UniProt Q9H9Q2)
# DDX1 = DDX1 (UniProt Q92499)
# RTRAF = RTRAF (UniProt Q9Y224)
# ACLY = ACLY (UniProt P53396)
# TLN1 = TLN1 (UniProt Q9Y490)
# HYOU1 = HYOU1 (UniProt Q9Y4L1)
# PDIA6 = PDIA6 (UniProt Q15084)
# LDHB = LDHB (UniProt P07195)
# LGALS1 = LGALS1 (UniProt P09382)
# LPP = LPP (UniProt Q93052)
# LUZP1 = LUZP1 (UniProt Q86V48)
# MYH10 = MYH10 (UniProt P35580)
# NDRG1 = NDRG1 (UniProt Q92597)
# PDIA3 = PDIA3 (UniProt P30101)
# RAN = RAN (UniProt P62826)
# RTCB = RTCB (UniProt Q9Y3I0)
# Chain of UniProt Q9Y3I0 (Q9Y3I0 whole entry): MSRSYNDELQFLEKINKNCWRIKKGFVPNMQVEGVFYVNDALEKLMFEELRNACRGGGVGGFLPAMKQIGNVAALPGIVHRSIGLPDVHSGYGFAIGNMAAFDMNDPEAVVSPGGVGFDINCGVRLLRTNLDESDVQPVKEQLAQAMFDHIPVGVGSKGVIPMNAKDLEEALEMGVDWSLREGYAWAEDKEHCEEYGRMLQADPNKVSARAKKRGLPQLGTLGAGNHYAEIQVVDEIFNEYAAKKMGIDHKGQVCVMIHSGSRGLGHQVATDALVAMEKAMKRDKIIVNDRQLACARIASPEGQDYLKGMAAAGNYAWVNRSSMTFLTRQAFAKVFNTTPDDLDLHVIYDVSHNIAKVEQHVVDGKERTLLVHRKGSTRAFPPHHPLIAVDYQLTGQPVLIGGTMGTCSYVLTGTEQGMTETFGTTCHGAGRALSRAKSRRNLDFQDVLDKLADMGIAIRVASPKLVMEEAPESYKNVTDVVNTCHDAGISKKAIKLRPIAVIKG
# SEPTIN11 = SEPTIN11 (UniProt Q9NVA2)
# SPTAN1 = SPTAN1 (UniProt Q13813)
# SRP9 = SRP9 (UniProt P49458)
# Chain of UniProt P49458 (P49458 whole entry): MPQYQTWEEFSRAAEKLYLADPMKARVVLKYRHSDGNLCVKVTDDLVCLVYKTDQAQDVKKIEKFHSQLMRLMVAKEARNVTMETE
# UCKL1 = UCKL1 (UniProt Q9NWZ5)
# VBP1 = VBP1 (UniProt P61758)
# VPS16 = VPS16 (UniProt Q9H269)
# VPS18 = VPS18 (UniProt Q9P253)
# VTI1A = VTI1A (UniProt Q96AJ9)
# YKT6 = YKT6 (UniProt O15498)
# YWHAE = YWHAE (UniProt P62258)
# YWHAZ = YWHAZ (UniProt P63104)
# Chain of HSPA5 (P11021 whole entry): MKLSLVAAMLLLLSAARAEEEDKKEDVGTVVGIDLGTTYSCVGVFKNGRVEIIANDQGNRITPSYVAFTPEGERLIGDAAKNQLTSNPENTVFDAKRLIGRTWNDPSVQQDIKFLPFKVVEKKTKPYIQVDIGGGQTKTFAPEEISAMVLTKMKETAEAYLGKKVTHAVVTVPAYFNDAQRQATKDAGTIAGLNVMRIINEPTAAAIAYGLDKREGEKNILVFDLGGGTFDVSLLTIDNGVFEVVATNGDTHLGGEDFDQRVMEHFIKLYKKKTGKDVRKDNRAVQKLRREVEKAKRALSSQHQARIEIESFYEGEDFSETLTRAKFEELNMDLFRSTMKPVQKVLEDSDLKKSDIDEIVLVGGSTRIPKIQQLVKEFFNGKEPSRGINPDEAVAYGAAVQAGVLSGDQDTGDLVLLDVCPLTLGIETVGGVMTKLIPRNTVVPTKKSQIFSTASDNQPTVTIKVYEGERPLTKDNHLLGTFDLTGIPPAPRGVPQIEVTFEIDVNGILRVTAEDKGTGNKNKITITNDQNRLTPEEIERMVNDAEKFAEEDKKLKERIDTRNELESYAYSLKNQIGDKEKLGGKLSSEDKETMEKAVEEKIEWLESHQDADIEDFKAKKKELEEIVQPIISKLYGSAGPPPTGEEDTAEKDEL
# Chain of CCT3, P49368 (P49368 whole entry): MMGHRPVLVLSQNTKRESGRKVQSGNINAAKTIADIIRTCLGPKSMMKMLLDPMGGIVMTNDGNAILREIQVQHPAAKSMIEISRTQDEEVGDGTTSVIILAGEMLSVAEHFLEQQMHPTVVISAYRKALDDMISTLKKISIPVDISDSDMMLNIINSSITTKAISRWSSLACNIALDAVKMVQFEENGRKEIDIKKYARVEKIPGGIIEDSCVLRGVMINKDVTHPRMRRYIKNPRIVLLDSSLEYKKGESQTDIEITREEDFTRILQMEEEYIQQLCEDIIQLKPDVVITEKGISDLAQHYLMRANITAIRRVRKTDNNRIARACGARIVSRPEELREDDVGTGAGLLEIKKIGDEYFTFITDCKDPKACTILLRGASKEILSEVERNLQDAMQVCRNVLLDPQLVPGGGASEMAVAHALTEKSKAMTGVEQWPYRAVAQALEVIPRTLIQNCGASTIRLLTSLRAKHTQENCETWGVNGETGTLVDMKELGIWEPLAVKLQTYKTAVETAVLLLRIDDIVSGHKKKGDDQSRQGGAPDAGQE
# Chain of CCT3 (P49368 whole entry): as above
# Chain of RTRAF, Q9Y224 (Q9Y224 whole entry): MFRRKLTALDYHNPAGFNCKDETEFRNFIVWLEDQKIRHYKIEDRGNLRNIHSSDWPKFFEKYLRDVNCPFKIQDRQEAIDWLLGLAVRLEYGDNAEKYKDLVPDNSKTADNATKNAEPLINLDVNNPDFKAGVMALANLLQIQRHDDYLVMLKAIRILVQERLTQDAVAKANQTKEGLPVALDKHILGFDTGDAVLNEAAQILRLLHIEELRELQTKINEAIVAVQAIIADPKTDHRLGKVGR
# Chain of CLTB (P09497 whole entry): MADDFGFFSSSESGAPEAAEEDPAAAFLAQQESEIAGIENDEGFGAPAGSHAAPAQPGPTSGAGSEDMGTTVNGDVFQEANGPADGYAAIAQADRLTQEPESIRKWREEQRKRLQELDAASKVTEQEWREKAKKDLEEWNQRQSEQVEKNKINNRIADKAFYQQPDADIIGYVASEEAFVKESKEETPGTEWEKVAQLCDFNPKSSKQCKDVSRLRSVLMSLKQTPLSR
# Chain of FAM98A (Q8NCA5 whole entry): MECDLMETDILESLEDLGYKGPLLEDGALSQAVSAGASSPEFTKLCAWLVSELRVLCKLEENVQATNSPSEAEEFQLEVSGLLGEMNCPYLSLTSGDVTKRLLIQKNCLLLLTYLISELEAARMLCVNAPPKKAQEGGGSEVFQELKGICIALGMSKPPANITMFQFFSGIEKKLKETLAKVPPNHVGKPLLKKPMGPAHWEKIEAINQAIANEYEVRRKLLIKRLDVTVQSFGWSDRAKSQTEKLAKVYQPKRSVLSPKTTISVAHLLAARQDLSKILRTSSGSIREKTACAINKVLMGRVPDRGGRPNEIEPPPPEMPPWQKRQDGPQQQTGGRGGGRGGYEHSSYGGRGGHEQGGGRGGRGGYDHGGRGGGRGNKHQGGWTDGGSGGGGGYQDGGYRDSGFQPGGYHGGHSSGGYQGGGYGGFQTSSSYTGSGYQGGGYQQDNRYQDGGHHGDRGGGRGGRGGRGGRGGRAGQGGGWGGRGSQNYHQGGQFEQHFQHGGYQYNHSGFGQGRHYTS
# Chain of TCP1 (P17987 whole entry): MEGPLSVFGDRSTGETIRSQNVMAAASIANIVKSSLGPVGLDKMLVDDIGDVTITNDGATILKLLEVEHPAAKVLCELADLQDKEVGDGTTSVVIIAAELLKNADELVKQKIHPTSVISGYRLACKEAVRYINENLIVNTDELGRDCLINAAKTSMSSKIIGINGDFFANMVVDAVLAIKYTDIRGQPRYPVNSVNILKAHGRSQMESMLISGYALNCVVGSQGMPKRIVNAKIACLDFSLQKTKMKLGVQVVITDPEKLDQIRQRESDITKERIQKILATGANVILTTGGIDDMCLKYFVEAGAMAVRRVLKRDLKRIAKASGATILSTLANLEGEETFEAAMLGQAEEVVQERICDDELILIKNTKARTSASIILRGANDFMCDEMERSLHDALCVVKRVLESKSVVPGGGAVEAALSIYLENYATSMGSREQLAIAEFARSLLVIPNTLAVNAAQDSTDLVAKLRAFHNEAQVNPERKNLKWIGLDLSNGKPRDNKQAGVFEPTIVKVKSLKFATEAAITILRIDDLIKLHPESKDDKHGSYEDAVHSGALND
# Chain of VPS4B (O75351 whole entry): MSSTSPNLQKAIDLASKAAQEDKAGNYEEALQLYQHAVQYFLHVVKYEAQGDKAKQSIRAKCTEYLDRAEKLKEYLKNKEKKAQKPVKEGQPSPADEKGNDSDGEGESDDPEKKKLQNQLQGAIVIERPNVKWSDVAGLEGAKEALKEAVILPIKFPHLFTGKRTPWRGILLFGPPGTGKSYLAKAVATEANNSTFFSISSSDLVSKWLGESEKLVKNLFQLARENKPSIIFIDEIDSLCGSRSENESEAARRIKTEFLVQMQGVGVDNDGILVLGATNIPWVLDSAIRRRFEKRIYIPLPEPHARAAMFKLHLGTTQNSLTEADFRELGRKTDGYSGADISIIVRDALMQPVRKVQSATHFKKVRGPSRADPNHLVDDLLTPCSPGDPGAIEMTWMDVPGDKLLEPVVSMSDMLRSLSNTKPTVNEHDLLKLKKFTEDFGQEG
# Chain of DCTN3 (O75935 whole entry): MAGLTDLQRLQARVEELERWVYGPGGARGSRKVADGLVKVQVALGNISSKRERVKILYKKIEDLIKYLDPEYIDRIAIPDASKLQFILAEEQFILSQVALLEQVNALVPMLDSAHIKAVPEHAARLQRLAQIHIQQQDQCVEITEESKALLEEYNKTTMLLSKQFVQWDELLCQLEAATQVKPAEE
# Chain of RTRAF (Q9Y224 whole entry): as the sequence (Q9Y224 whole entry) above
substance,measurement,setting,value
"VPS4B, O75351",cross-linked residues,CHMP2B,K53 - K180 and K53 - K195
same,cross-linked residues,VTA1,K61 - K29 and K422 - K274
"CLTA, P09496",cross-linked residues,CLTC,K112 - K1264 and K156 - K1264 and K158 - K1501 and K229 - K1612 and K242 - K1516 and K242 - K1535
"PRDX4, Q13162",cross-linked residues,ERP44,K263 - K106 and K269 - K303
"EIF3B, P55884",cross-linked residues,EIF3I,K693 - K282 and K729 - K282
"PPIB, P23284",cross-linked residues,CALR,K116 - K43 and K116 - K360
"TCP1, P17987",cross-linked residues,CCT3,K73 - K528 and K73 - K529 and K199 - K234 and K199 - K317
same,cross-linked residues,CCT4,K126 - K21 and K126 - K55 and K126 - K489 and K532 - K65 and K541 - K21
same,cross-linked residues,CCT7,K109 - K109 and K111 - K440
"CCT6A, P40227",cross-linked residues,CCT3,K10 - K21 and K10 - K31 and K10 - K78 and K530 - K78
same,cross-linked residues,CCT8,K10 - K20 and K199 - K326 and K199 - K400 and K251 - K326 and K307 - K326 and K377 - K400
"DCTN3, O75935",cross-linked residues,DCTN2,K32 - K229 and K60 - K297 and K60 - K308 and K66 - K297
"EEF1G, P26641",cross-linked residues,EEF1D,K52 - K117 and K219 - K107 and K220 - K17 and K220 - K107 and K227 - K17 and K241 - K17
"PDCD5, O14737",cross-linked residues,CCT3,K97 - K529 and K105 - K529
"CCT3, P49368",cross-linked residues,CCT8,K21 - K16 and K21 - K20 and K21 - K37 and K31 - K20
same,cross-linked residues,PDCL3,K203 - K214 and K249 - K90 and K381 - K214 and K529 - K148
"CLTB, P09497",cross-linked residues,CLTC,K149 - K1264 and K151 - K1501 and K204 - K1246 and K204 - K1516 and K204 - K1535 and K207 - K1516 and K207 - K1612 and K210 - K1612 and K223 - K1535
"AP1S1, P61966",cross-linked residues,AP1M1,K26 - K370 and K26 - K373
"COPS5, Q92905",cross-linked residues,COPS7B,K180 - K199 and K309 - K199
"FAM98A, Q8NCA5",cross-linked residues,DDX1,K240 - K687 and K240 - K702 and K248 - K702 and K260 - K693
same,cross-linked residues,RTRAF,K132 - K108 and K133 - K115 and K189 - K176 and K245 - K234 and K248 - K234 and K253 - K218 and K260 - K108 and K277 - K171 and K277 - K176
"S100A6, P06703",cross-linked residues,ACLY,K47 - K780 and K47 - K836 and K47 - K978
same,cross-linked residues,DCTN2,K47 - K188 and K47 - K297 and K47 - K308
same,cross-linked residues,TLN1,K26 - K1654 and K47 - K1544
"HSPA5, P11021",cross-linked residues,HYOU1,K370 - K883 and K376 - K883
same,cross-linked residues,PDIA6,K287 - K150 and K523 - K150 and K523 - K159 and K523 - K245 and K579 - K150
"LDHA, P00338",cross-linked residues,LDHB,K14 - K156 and K224 - K7
"PFN1, P07737",cross-linked residues,LGALS1,K91 - K29 and K105 - K29
"VCL, P18206",cross-linked residues,LPP,K768 - K108 and K784 - K108
"DAPK3, O43293",cross-linked residues,LUZP1,K400 - K150 and K425 - K187
"MYH9, P35579",cross-linked residues,MYH10,K1330 - K1345 and K1492 - K1596 and K1669 - K1925 and K1775 - K1809 and K1775 - K1874 and K1867 - K1724 and K1918 - K1869
"ATP1A1, P05023",cross-linked residues,NDRG1,K444 - K280 and K458 - K280
"CALR, P27797",cross-linked residues,PDIA3,K153 - K104 and K360 - K466
"HSPA8, P11142",cross-linked residues,RAN,K159 - K28 and K159 - K37
"DDX1, Q92499",cross-linked residues,RTCB,K636 - K366 and K693 - K206 and K702 - K206 and K702 - K366
"RTRAF, Q9Y224",cross-linked residues,RTCB,K176 - K245 and K185 - K492
"SEPTIN2, Q15019",cross-linked residues,SEPTIN11,K190 - K65 and K249 - K190
"SPTBN1, Q01082",cross-linked residues,SPTAN1,K292 - K2404 and K659 - K1911 and K997 - K1646 and K1249 - K1369 and K2054 - K441
"SRP14, P37108",cross-linked residues,SRP9,K55 - K76 and K74 - K76 and K78 - K76
"UPRT, Q96BW1",cross-linked residues,UCKL1,K111 - K328 and K169 - K343
"PFDN6, O15212",cross-linked residues,VBP1,K66 - K114 and K122 - K189
"VPS33A, Q96AX1",cross-linked residues,VPS16,K126 - K554 and K423 - K668
"VPS11, Q9H270",cross-linked residues,VPS18,K811 - K412 and K909 - K481
"STX16, O14662",cross-linked residues,VTI1A,K185 - K35 and K287 - K176 and K297 - K176
same,cross-linked residues,YKT6,K185 - K103 and K281 - K186
"NAPA, P54920",cross-linked residues,VTI1A,K285 - K35 and K285 - K89
"YWHAB, P31946",cross-linked residues,YWHAE,K70 - K12 and K77 - K12
"YWHAG, P61981",cross-linked residues,YWHAE,K69 - K12 and K78 - K12
"YWHAE, P62258",cross-linked residues,YWHAZ,K12 - K68 and K12 - K75 and K29 - K85
"YWHAQ, P27348",cross-linked residues,YWHAZ,K9 - K85 and K85 - K9
